Experimental data: the supplement of paper PMC12645437, “Orthogonal IMiD-Degron Pairs Induce Selective Protein Degradation in Cells” (ACS Chemical Biology, 2025)
The other results are listed elsewhere or left out.

What follows are sequences tested against no compound (DMSO) (assay: log2 fold change of degron read counts, EGFP-low vs EGFP+ sorted cells; higher = lower degron-EGFP level without compound (poor expression or instability)). Details: compound: DMSO control; 18 h.
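Further: jurkat cells carrying a lentiviral library of mutant zinc finger degrons fused to EGFP plus mCherry, mCherry+ cells FACS sorted, degron abundance counted by next-generation sequencing.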

Row | Sequence | log2 fold change of degron read counts
1 | FECEICGRYFTQKGNLLRHIKL | -1.09
2 | FWCDVCGADFTQKGNLLRHIKL | -1.68
3 | FFCEICGATFTQKGNLLRHIKL | -1.95
4 | FICEVCGAKFTQKGNLLRHIKL | -2.05
5 | FTCPICGAWFTQKGNLLRHIKL | 0.892
6 | FVCEICGHNFTQKGNLLRHIKL | -1.9
7 | FWCNQCGRSFTQKGNLLRHIKL | 0.562
8 | LRCNQCGFCCTQKGNLLRHIKL | 0.532
9 | FRCNQCGRSFTQKGNLLRHIKL | -0.469
10 | FGCPICGAEFTQKGNLLRHIKL | -0.25
11 | FTCEICGALFTQKGNLLRHIKL | -0.585
12 | FACNQCGAYFTQKGNLLRHIKL | 0.275
13 | FRCPVCGARFTQKGNLLRHIKL | -0.212
14 | FYCEICGRYFTQKGNLLRHIKL | 0.0422
15 | FCCEICGAAFTQKGNLLRHIKL | -0.98
16 | LQCNQCGFHCTQKGNLLRHIKL | 0.312
17 | FNCSVCGHVFTQKGNLLRHIKL | 0.299
18 | FMCDQCGALFTQKGNLLRHIKL | -1.12
19 | FHCEVCGAPFTQKGNLLRHIKL | -1.24
20 | FRCEICGAAFTQKGNLLRHIKL | -2.27
21 | FCCDICGATFTQKGNLLRHIKL | -1.95
22 | LQCPICGFICTQKGNLLRHIKL | 0.978
23 | FFCSVCGHYFTQKGNLLRHIKL | 0.823
24 | FVCPICGAQFTQKGNLLRHIKL | -0.902
25 | FVCNQCGAMFTQKGNLLRHIKL | -0.311

Row | Sequence | log2 fold change of degron read counts
26 | FDCEICGRHFTQKGNLLRHIKL | -1.4
27 | FLCEVCGAFFTQKGNLLRHIKL | -0.944
28 | FTCDVCGARFTQKGNLLRHIKL | -1.64
29 | FMCEICGHSFTQKGNLLRHIKL | -2.7
30 | FQCDQCGAWFTQKGNLLRHIKL | -0.484
31 | FRCNQCGHHFTQKGNLLRHIKL | -0.139
32 | FMCDQCGASFTQKGNLLRHIKL | -1.46
33 | FLCPVCGACFTQKGNLLRHIKL | 0.119
34 | FTCNQCGHEFTQKGNLLRHIKL | -1.12
35 | FRCPICGAGFTQKGNLLRHIKL | 0.379
36 | FYCDICGARFTQKGNLLRHIKL | -0.687
37 | FACPQCGALFTQKGNLLRHIKL | -0.456
38 | FCCNQCGACFTQKGNLLRHIKL | -0.511
39 | FDCPQCGAEFTQKGNLLRHIKL | -1.91
40 | FMCDQCGAPFTQKGNLLRHIKL | -1.14
41 | FCCNQCGRWFTQKGNLLRHIKL | 0.571
42 | FICPICGHNFTQKGNLLRHIKL | -0.328
43 | FVCDQCGAYFTQKGNLLRHIKL | -1.25
44 | FTCPICGAEFTQKGNLLRHIKL | -0.473
45 | FHCPICGAMFTQKGNLLRHIKL | -0.0657
46 | FWCPICGASFTQKGNLLRHIKL | 0.575
47 | FMCNQCGRAFTQKGNLLRHIKL | -0.571
48 | FACPICGALFTQKGNLLRHIKL | 0.423
49 | FRCPICGHCFTQKGNLLRHIKL | -0.274
50 | FNCPICGRLFTQKGNLLRHIKL | -0.331
